Test results as given in PubChem BioAssay AID686978 (National Center for Advancing Translational Sciences (NCATS), 2013).
Out of some 420,000 compounds screened, about 64,000 (15%) were called active. Inconclusive results, whose numbers are uncertain, are shown with a selection of clear calls. Calls come from the whole dose curve; as a rule, active = well fitted inhibition curve with a large enough effect; inconclusive = small, poorly fitted or top-dose-only effect; inactive = flat fitted curve, though single readings scatter. Potencies of inconclusive entries are left out as doubtful fits.

Experiment: qHTS for Inhibitors of human tyrosyl-DNA phosphodiesterase 1 (TDP1): qHTS in cells in absence of CPT; note: nearly all actives have a fitted effect of over 55% in size
Conditions: DT40 Tdp1-/- hTDP1 cells, no CPT, ATP luminescence, 48 h; activity change, negative = growth inhibition: at 46.2 µM (top of the series) unless noted
Procedure, shortened: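 A cellular qHTS used chicken DT40 cells lacking endogenous Tdp1 but carrying stably transfected human TDP1. Compounds were applied without camptothecin, and cell growth kinetics were judged by ATP-dependent luminescence after ≥48 hr.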
% is set by controls: 0 for no effect and ±100 for the full control effect; potency is the fitted concentration of half-maximal effect; tags give direction and shape of the fitted curve.

SMILES	Potency	activity change, negative = growth inhibition
CC1CCN(C(=O)C2CCN(S(=O)(=O)c3ccc4c(c3)CC(C)N4C(=O)C3CC3)CC2)CC1 (configuration not stated)	inconclusive [inhibitor, single point]	
CC1CC(N(C(=O)c2ccccc2Cl)c2ccccc2)c2ccccc2N1 (configuration not stated)	active: 5.8 µM	
Cn1c(=O)[nH]c(=O)c2c1nc(N1CCN(C(c3ccccc3)c3ccccc3)CC1)n2CCO	active: 16.4 µM	
CCN(c1ccccc1)S(=O)(=O)c1ccc2c(c1)C(C)(C)C(=O)N2C	inconclusive [inhibitor, single point]	
CCNC(=S)N/N=C/c1c(Cl)cccc1Cl	inconclusive [inhibitor, single point]	
COc1ccc(CC(=O)NNS(=O)(=O)c2ccc(F)cc2)cc1OC	inconclusive [inhibitor, single point]	
COc1ccc(C(=O)Nc2ccc(C(=O)NCC3CCCO3)cc2)c(OC)c1OC (configuration not stated)		inactive: 1.23%
CN(C)C(=O)c1ccc(-c2cc(Nc3ccccc3)ncn2)cc1		inactive: -29.3%
CC(C)C1S/C(=N/N=C/c2ccco2)NC1=O (configuration not stated)		inactive: -3.88%
Cc1ccc(/C=N/Nc2nc3ccccc3s2)o1	inconclusive [inhibitor, single point]	
CCC(C)Sc1ccc([C@H]2N[C@@](Cc3ccccc3)(C(=O)OC)[C@H]3C(=O)N(C)C(=O)[C@@H]23)cc1 (some centres not stated)	inconclusive [inhibitor, partial curve]	
Cc1cccc(N2CCN(C(=O)c3ccoc3C)CC2)c1C	inconclusive [inhibitor, single point]	
COc1ccc2cc(C(=O)C3CCCN(C(=O)Cc4c(C)noc4C)C3)ccc2c1 (configuration not stated)	active: 20.6 µM	
CC1Cc2ccccc2N1C(=O)CCN1C(=O)C2C3C=CC(C3)C2C1=O (configuration not stated)		inactive: -24.5%
CN(CCC#N)c1ccc(C=C(C#N)c2ccc(Br)cc2)cc1	inconclusive [inhibitor, single point]	
CCCN1CCN(C(=O)Cn2nc(C)n3c(cc4c(OC)cccc43)c2=O)CC1		inactive: -25%
COc1ccc(-c2coc3c(C)c4oc(=O)c(CCC(=O)O)c(C)c4cc23)cc1	inconclusive [inhibitor, single point]	
Cc1ccc(NCC(=O)N/N=C\c2ccc([N+](=O)[O-])o2)cc1	active: 18.4 µM	
CCCCSc1nc2ccc(Nc3nc(N4CCOCC4)nc(N4CCOCC4)n3)cc2s1	active: 20.6 µM	
Cc1ccc(S(=O)(=O)N2CCOCC2)cc1NC(=O)COC(=O)C1=COCCO1		inactive: -19.9%
Cc1ccc(-c2nc3c4ccccc4n(Cc4cccc(Cl)c4)c(=O)n3n2)cc1	inconclusive [inhibitor, single point]	
O=C(NCc1cccc(F)c1)Nc1nnc([C@H]2C[C@H](O)[C@@H](CO)O2)s1		inactive: 0.304%
C=C1CSc2nc(=O)c3c4c(sc3n21)CCCC4		inactive: -15.4%
Cc1nccn1-c1c([N+](=O)[O-])c(=O)n(C)c2ccccc12		inactive: -21.1%

SMILES	Potency	activity change, negative = growth inhibition
CC/C(=N/NC(=O)CNc1ccc(Cl)cc1C)c1ccccc1		inactive: -3.42%
COc1cc(C=O)ccc1Oc1nc(Nc2ccc(F)cc2F)nc(N2CCOCC2)n1	inconclusive [inhibitor, single point]	
Cc1ccc(-c2csc(Nc3ccccn3)n2)cc1	inconclusive [inhibitor, single point]	
O=C(/C=C/c1cccc([N+](=O)[O-])c1)Nc1ccc(Cl)cn1	active: 2.59 µM	
CN1CCN(c2ccc(Cl)cc2NC(=O)c2ccc([N+](=O)[O-])cc2)CC1	inconclusive [inhibitor, single point]	
Cc1cccc(N2CCN(C(=O)c3ccc(Cl)c(S(=O)(=O)N4CCc5ccccc5C4)c3)CC2)c1C	active: 14.6 µM	
CN(CCc1ccccc1)C(=O)c1cccc(NC(=O)Cc2cccc(NC(=O)C3CCCN(C(=O)C4CCCC4)C3)c2)c1 (configuration not stated)	inconclusive [inhibitor, single point]	
N#Cc1cccc(C(c2nnnn2C2CCCC2)N2CCC(Cc3ccccc3)CC2)c1 (configuration not stated)	inconclusive [inhibitor, partial curve]	
CC(Oc1ccc(Cl)cc1Cl)C(=O)N(Cc1ccco1)C1CCS(=O)(=O)C1 (configuration not stated)	inconclusive [inhibitor, single point]	
C/C(=N/OCO/N=C(\C)c1ccc(F)cc1F)c1ccc(F)cc1F		inactive: 1.33%
COc1cccc(-c2nc(-c3ccc(NC(=O)Cc4ccccc4OC)cc3)no2)c1	inconclusive [inhibitor, single point]	
Cc1c(C)n(Cc2ccccc2)c2ncnc(NCCO)c12	inconclusive [inhibitor, partial curve]	
Cc1cc(OCc2nc3ccccc3s2)ccc1N	inconclusive [inhibitor, single point]	
CCN(Cc1nc2ccccc2c(=O)[nH]1)C(=O)c1cc(C2CC2)nn1-c1ccccc1	inconclusive [inhibitor, single point]	
CC(C)CC(=O)Nc1ccc(-c2cn3ccsc3n2)cc1	inconclusive [inhibitor, partial curve]	
COc1ccc(-c2c(-c3cc(OC)cc(OC)c3)n(C)c3ccc(-c4ccc(OC)cc4F)cc23)cc1	inconclusive [inhibitor, partial curve]	
COc1ccc(S(=O)(=O)CCC(=O)N2CCN(c3cccc(Cl)c3)CC2)cc1	active: 10.3 µM	
CCOc1ccc(OCCC(=O)N(CC(=O)Nc2ccccc2C(F)(F)F)Cc2ccco2)cc1	inconclusive [inhibitor, partial curve, poor fit]	
CC(CCN1CCC(CN2C(=O)C(=O)NC[C@@H]2Cc2ccccc2)CC1)c1ccccc1 (some centres not stated)		inactive: 0.359%
CC(=O)N1CCCc2cc(S(=O)(=O)Nc3cccc(C)c3C)ccc21	inconclusive [inhibitor, partial curve]	
O=C(CSc1ncnc2c1oc1ccccc12)Nc1cccc(C(F)(F)F)c1	inconclusive [inhibitor, partial curve]	
Cc1ccc2nc(-c3ccc(NC(=O)c4ccco4)cc3)[nH]c2c1	inconclusive [inhibitor, single point]	
Nc1c(C(=O)OCC(=O)NCc2ccccc2)[nH]c(=O)[nH]c1=O		inactive: 6.26%
CCN(CC)CCCn1c(SCC(=O)Nc2cccc(F)c2)nnc1-c1ccoc1C		inactive: 5.71%

SMILES	Potency	activity change, negative = growth inhibition
O=S(=O)(NCCc1ccccc1)c1cnc(Cl)c(Br)c1		inactive: -12.5%
COc1ccc2oc(C(=O)N3CCN(S(=O)(=O)c4c(C)c(C)cc(C)c4C)CC3)c(C)c2c1	inconclusive [inhibitor, single point]	
Cc1nc2c(nc1C)C(=O)c1ccccc1C2=O	active: 4.61 µM	
Cc1noc(C)c1CSCC(=O)Nc1nnc(CC(C)C)s1		inactive: -5.2%
CS(=O)(=O)N(CC(=O)N1CCN(c2ccccc2)CC1)c1ccc(Cl)c(C(F)(F)F)c1	inconclusive [inhibitor, single point]	
COc1ccc(S(=O)(=O)N(C)CC(=O)N2CCC(C(N)=O)CC2)cc1Cl		inactive: 9.38%
CC(C)=CC(=O)O[C@@H]1Cc2c(ccc3ccc(=O)oc23)OC1(C)C	inconclusive [inhibitor, partial curve]	
COc1cc(/C=N/NC(N)=S)cc(Br)c1OCc1ccccc1F	active: 6.51 µM	
O=C(CN1C(=O)NC2(CCCCCC2)C1=O)NCc1cccs1		inactive: 0.121%
O=C(OCC(=O)N1CCCc2ccccc21)c1ccc(F)c(S(=O)(=O)N2CCOCC2)c1		inactive: -15.4%
COc1ccc(OC)c(CNC(=O)C2COc3ccccc3C2)c1 (configuration not stated)	inconclusive [inhibitor, single point]	
C#CCOc1c(Br)cc(/C=C2/C(=O)ON=C2C)cc1OC	inconclusive [inhibitor, partial curve]	
COc1ccc2nc(N3CCN(C(=O)c4ccco4)CC3)sc2c1	inconclusive [inhibitor, partial curve]	
CCc1ccc(S(=O)(=O)c2nnn3c2nc(N2CCCC(C)C2)c2cc(Cl)ccc23)cc1 (configuration not stated)	active: 7.31 µM	
COc1ccc2sc(-c3ccc(SC)cc3)c(C#CCO)c2c1	inconclusive [inhibitor, single point]	
CCOC(=O)Cc1ccc(NC(=O)N2CC(CC)Oc3ccccc32)cc1 (configuration not stated)	inconclusive [inhibitor, single point]	
CC(=Nc1ccccc1)C1=C(O)C(Cc2ccc(F)cc2)NC1=O (configuration not stated)	active: 1.16 µM	
CC(=O)N1N=C(c2ccc(C)cc2)CC1c1ccc2c(c1)OCO2 (configuration not stated)	inconclusive [inhibitor, single point]	
O=C(NCCc1ccccc1)C1CCN(C(=O)N2CCOc3ccccc32)CC1		inconclusive: -34.4% [inhibitor]
COc1ccc(NC(=O)c2ccco2)cc1NC(=O)COc1ccc(C)cc1C	inconclusive [inhibitor, full curve]	
Cc1cccc(C)c1N1CCN(c2ccc3nnc(C(F)(F)F)n3n2)CC1	active: 20.6 µM	
C[C@H](O)[C@@H]1C(=O)N2CCc3c([nH]c4ccccc34)[C@@H]2C[C@@H]1N(C)C(=O)c1ccco1		inactive: -24.2%
Cc1cccc2[nH]c(CN(C)C(=O)C3CCC(=O)N(CCc4ccccc4)C3)nc12 (configuration not stated)		inactive: -10.5%
Cc1nc2ccccc2n1CCc1nc2c3ccccc3nc(SCC(=O)Nc3ccc(C(C)C)cc3)n2n1	active: 9.2 µM	
